Source: PubChem BioAssay AID445 (National Center for Advancing Translational Sciences (NCATS), 2006)
About 40 (0.04%) of roughly 110,000 compounds were called active. This list was built around the results that the source calls inconclusive (neither active nor inactive); the mix of calls is not that of the screen. Calls follow the shape of the dose curve; as a rule, active = well fitted curve in the direction sought with a large enough effect in the signal ratio (not every such curve was filed as active); inconclusive = small, poorly fitted or top-dose-only effect, or a change in a side signal; inactive = flat fitted curve, though single readings scatter; the % refers to the signal ratio. Potencies beside an inconclusive call are fits to weak or partial responses and may not hold up.

assay: IkB Signaling; settings: ABC-DLBCL IkBa-CBG/CBR dual luciferase ratio (green luciferase fused to IkBa over red control in OCI-Ly3 lymphoma cells), 4 h; IkBa stabilization activation: at 57.1 µM (top of the series), scaled: untreated 0%, proteasome inhibitor 100% unless noted;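 as to IkBa stabilization activation: 0% = basal untreated cells and 100% = reference inhibitor full response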
Summary of the method: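 Luminescence ratio of IκBα-fused green versus native red beetle luciferase in OCI-Ly3 cells, 4 h post-doxycycline with compound; red signal alone, scaled from basal (0%) to zero light (-100%), flagged nonspecific or cytotoxic effects.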
Potency is read from the fitted curve at half-maximal effect.

Question: Which IkBa stabilization activation does the source give for `O=C(NCC1CCCO1)c1c[nH]c2ccc(S(=O)(=O)Nc3cccc(C(F)(F)F)c3)cc2c1=O` (centres undefined) here?
Answer: The IkBa stabilization activation was inconclusive: 3.03% [signal inhibitor].

Question: Which IkBa stabilization activation does the source give for `Cc1cc2ncn(CC(=O)O)c2cc1C` here?
Answer: Its IkBa stabilization activation is inactive: 0.948% [at 11.4 µM, scaled: untreated 0%, proteasome inhibitor 100%].

Question: For `Cn1c(=O)[nH]c(=O)c2c1nc(CN1CCN(c3cccc(Cl)c3)CC1)n2CCN1CCOCC1`, which “IkBa stabilization activation” value is on record?
Answer: Its value is inactive: -0.09%.

Question: For `CCC(Sc1nc2nccnc2c(=O)n1Cc1ccc(OC)cc1)C(=O)NC1CCCCC1` (centres undefined), which IkBa stabilization activation is on record?
Answer: Its IkBa stabilization activation is inconclusive: 5.88% [signal inhibitor].

Question: Which IkBa stabilization activation does the source give for `CC(C)(C)c1cc(CN2CCCC(O)C2)c(O)c(C(C)(C)C)c1` (centres undefined) here?
Answer: The IkBa stabilization activation was inconclusive: 6.58% [signal inhibitor].

Question: For `CCCc1cc(C(=O)N2CCN(c3ccccc3C)CC2)cs1`, which IkBa stabilization activation is on record?
Answer: Its IkBa stabilization activation is inconclusive: 2.46% [signal inhibitor].

Question: For `CC(C)n1c(SCC(=O)Nc2ccc(F)cc2)nc2c(oc3ccccc32)c1=O`, which IkBa stabilization activation is on record?
Answer: Its IkBa stabilization activation is inconclusive: 2.76% [signal inhibitor].

Question: Which “IkBa stabilization activation” value does the source give for `CCOc1ccccc1CNC(=O)c1ccc2c(c1)sc1nc(-c3cccc(OC)c3)cn12` here?
Answer: The value was inactive: 1.6%.

Question: For `O=C(c1cc(-c2cccc(O)c2)on1)N1CCCCC1`, which “IkBa stabilization activation” value is on record?
Answer: The value was inactive: 19.4%.

Question: With `CCOc1ccc(-n2c(SCC(=O)Nc3ccc(F)cc3)nc3c([nH]c4ccccc43)c2=O)cc1` as the compound, how does the “IkBa stabilization activation” value read?
Answer: The value was inactive: -2.88%.

Question: Which “IkBa stabilization activation” value does the source give for `Cc1ccc2c(c1)N(C(=O)N1CCC(C(=O)NC3CCCCCC3)CC1)CC(C)O2` (centres undefined) here?
Answer: The value was inactive: 3.12%.

Question: For `COc1cccc(N(C(=O)c2cccs2)c2nc3ccccc3s2)c1`, which “IkBa stabilization activation” value is on record?
Answer: Its value is inactive: 0.901%.

Question: Which IkBa stabilization activation does the source give for `Cc1cccc(NC(=O)c2cc(NC(=O)C3CCCCC3C(=O)O)ccc2N2CCCCC2)c1` (centres undefined) here?
Answer: Its IkBa stabilization activation is inconclusive: 3.06% [signal inhibitor].

Question: With `CCOc1ccc(C2C(=O)N(C3CCCCC3)CC(=O)N2C2CCCC2)cc1OC` (centres undefined) as the compound, how does the “IkBa stabilization activation” value read?
Answer: Its value is inactive: 0.302%.

Question: Which IkBa stabilization activation does the source give for `COC(=O)c1[nH]c2ccc(C)cc2c1NC(=O)CN1CCc2cc(OC)c(OC)cc2C1` here?
Answer: The IkBa stabilization activation was inconclusive: 0.679% [signal inhibitor].

Question: With `COc1ccc(/C=C/C(=O)Nc2sc3c(c2C(N)=O)CCC(C)C3)cc1OC` (centres undefined) as the compound, how does the IkBa stabilization activation read?
Answer: The IkBa stabilization activation was inconclusive: 0.406% [signal inhibitor].

Question: For `N#CCCCSc1nnc(CSc2nc3ccccc3s2)n1-c1ccccc1`, which IkBa stabilization activation is on record?
Answer: Its IkBa stabilization activation is inconclusive: 7.1% [signal inhibitor].

Question: With `CCOC(=O)c1c(NC(=O)c2cc(C)on2)sc(C)c1C` as the compound, how does the “IkBa stabilization activation” value read?
Answer: The value was inactive: -0.239%.

Question: With `Cc1ccc(-n2ncc3c(N4CCN(C)CC4)ncnc32)cc1Cl` as the compound, how does the IkBa stabilization activation read?
Answer: The IkBa stabilization activation was inconclusive: 3.62% [signal inhibitor].

Question: With `CNC(=O)c1ccc(Nc2nnc(-c3ccc(C)c(S(=O)(=O)N4CCCCC4)c3)c3ccccc23)cc1` as the compound, how does the Potency read?
Answer: The Potency was inconclusive: 31.6 µM [signal inhibitor].

Question: With `CCc1cccc(NC(=O)CSc2ncccc2C(=O)Oc2ccccc2Cl)c1` as the compound, how does the IkBa stabilization activation read?
Answer: Its IkBa stabilization activation is inconclusive: -1.25% [signal inhibitor].

Question: Which IkBa stabilization activation does the source give for `CNC(=O)c1c[nH]c2ccc(S(=O)(=O)Nc3cccc(Cl)c3C)cc2c1=O` here?
Answer: Its IkBa stabilization activation is inconclusive: 17.3%.

Question: For `Cc1cc(C)cc(OCc2ccc(C(=O)Nc3ccccc3F)o2)c1`, which IkBa stabilization activation is on record?
Answer: Its IkBa stabilization activation is inconclusive: 7.47% [signal inhibitor].

Question: For `NCCCCCc1nnc(SCC(=O)c2ccc(Cl)cc2)o1`, which Potency is on record?
Answer: Its Potency is inconclusive: 3.98 µM [signal inhibitor, full curve].

Question: With `Cc1noc(C)c1-c1cncnc1N(C)Cc1ccco1` as the compound, how does the IkBa stabilization activation read?
Answer: The IkBa stabilization activation was inactive: 0.582% [at 11.4 µM, scaled: untreated 0%, proteasome inhibitor 100%].

Question: With `COc1ccc(CNC(=O)CCC(=O)N2CC3CCCN3c3ccccc32)c(OC)c1` (centres undefined) as the compound, how does the IkBa stabilization activation read?
Answer: Its IkBa stabilization activation is inconclusive: 2.5% [signal inhibitor].

Question: With `Cc1ccc(C2=CC(c3c(F)cccc3Cl)n3ncnc3N2)cc1C` (centres undefined) as the compound, how does the IkBa stabilization activation read?
Answer: Its IkBa stabilization activation is inconclusive: -0.572% [signal inhibitor].

Question: With `CCOc1cccc(=O)c2c(C)n(Cc3ccco3)c(C)c12` as the compound, how does the “IkBa stabilization activation” value read?
Answer: The value was inactive: 0.583%.

Question: For `Cc1cc(C)cc(NC(=O)C2CCCN2S(=O)(=O)c2cccc3nsnc23)c1` (centres undefined), which “IkBa stabilization activation” value is on record?
Answer: Its value is inactive: -0.971%.

Question: Which IkBa stabilization activation does the source give for `Cc1cccc(N(CC(=O)NCc2ccc3c(c2)OCO3)C(=O)CCC(=O)Nc2ccccn2)c1` here?
Answer: Its IkBa stabilization activation is inconclusive: 0.99% [signal inhibitor].

Question: Which IkBa stabilization activation does the source give for `CCn1c(-c2ccc(S(=O)(=O)N3CCOCC3)cc2)csc1=Nc1ccc(C)c(Cl)c1` here?
Answer: Its IkBa stabilization activation is inconclusive: 7.45% [signal inhibitor].

Question: For `O=C(CSc1nnc2[nH]c(=O)cc(-c3ccccc3)n12)Nc1ccc(F)cc1F`, which “IkBa stabilization activation” value is on record?
Answer: Its value is inactive: 5.92%.

Question: With `O=C(O)c1ccc([N+]2=Cn3c(nc4ccccc43)C2)cc1` as the compound, how does the IkBa stabilization activation read?
Answer: The IkBa stabilization activation was inactive: 1.72% [at 11.4 µM, scaled: untreated 0%, proteasome inhibitor 100%].

Question: For `COc1ccccc1N(CC(=O)NC1CCCCC1)C(=O)CCC(=O)Nc1ccccn1`, which IkBa stabilization activation is on record?
Answer: Its IkBa stabilization activation is inconclusive: 18.6% [signal inhibitor].
